# Test results from PubChem BioAssay (Tox21).
# Values joined by “and” are separate entries in the source; they are usually repeats but may differ in a detail not shown here. Equal entries are not always repeated. This list was built around the results that the source calls inconclusive (neither active nor inactive); the mix of calls is not that of the screen. For part of these data: A potency beside an inconclusive call is a rough fit, not a confirmed value. Where a structure was tested more than once in an assay, its records may differ in their call. Active and inactive are the calls of the source. Unless noted, the call rests on the fitted dose curve; in most records, active means well fitted curve in the direction sought with a large enough effect in the repeat runs; inconclusive means weak or mixed curves; inactive means no such curve, though single readings can be large; an effect the other way counts as inactive or inconclusive.
# Assays:
# [1] = qHTS assay to identify aromatase inhibitors - cell viability counter screen (AID 743084); settings: MCF-7 aro ERE viability, CellTiter-Fluor, 24 h; activity change, negative = cytotoxicity: at 70.3 µM (top of the series);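 further: cells stimulated with testosterone during compound exposure; nearly all actives have a fitted effect of over 55% in size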; further: potency means the concentration at half of the fitted maximal effect; on activity change, negative = cytotoxicity: on the % scale 0 is the no-effect control and ±100 the full control effect
# [2] = molecular target: Aryl hydrocarbon receptor (Homo sapiens) (UniProt P35869); assay: qHTS assay to identify small molecule that activate the aryl hydrocarbon receptor (AhR) signaling pathway (AID 743085); further: nearly all actives have a fitted effect of over 15% in size; further: potency means the concentration at half of the fitted maximal effect;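 on activation: HG2L7.5c1 human HepG2 liver cells with stably integrated DRE-driven firefly reporter; on the % scale 0 is the no-effect control and ±100 the full control effect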
# How it was run: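 AhR agonist activity is inferred from enhanced light output of a DRE-controlled firefly luciferase reporter in HepG2 cells, measured with ONE-Glo following 24 h treatment at 37C.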
# [3] = molecular target: Peroxisome proliferator-activated receptor gamma (Homo sapiens) (UniProt P37231); assay: qHTS assay to identify small molecule agonists of the peroxisome proliferator-activated receptor gamma (PPARg) signaling pathway (AID 743094; active means well fitted activation curve with a large enough effect in the signal ratio in the repeat runs, not every such curve was filed as active; inconclusive means weak or mixed curves, or effect the other way; inactive means no such curve, though single readings can be large or run the other way; the % refers to the signal ratio; further: potency means the concentration at half of the fitted maximal effect; on activation: on the % scale 0 is the no-effect control and ±100 the full control effect); settings: HEK293H PPARg-UAS-bla, beta-lactamase FRET ratio, 17 h; activation: at 57 µM (top of the series) unless noted
# How it was run: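 Stably transfected HEK293H cells (GeneBLAzer PPARg UAS-bla) were incubated with test substances for 17 h at 37C after a 5 h pre-incubation; beta-lactamase activity was then detected by FRET substrate fluorescence.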
# [4] = molecular target: Peroxisome proliferator-activated receptor gamma (Homo sapiens) (UniProt P37231); assay: qHTS assay to identify small molecule antagonists of the peroxisome proliferator-activated receptor gamma (PPARg) signaling pathway (AID 743191; calls by dose curve; further: nearly all actives have a fitted effect of over 30% in size; further: potency means the concentration at half of the fitted maximal effect); settings: HEK293H PPARg-UAS-bla, beta-lactamase ratio, antagonist, 17 h; ratio activity, negative = inhibition: at 62.6 µM (top of the series) unless noted
# How it was run: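 Beta-lactamase reporter under UAS control in HEK293H PPARg-bla cells; compound treatment 17 h at 37C. Read-out: fluorescence intensity after 1 h room-temperature incubation with LiveBLAzer B/G FRET substrate.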
# [5] = qHTS assay for small molecule agonists of the antioxidant response element (ARE) signaling pathway (AID 743202; active means well fitted activation curve with a large enough effect in the signal ratio in the repeat runs, not every such curve was filed as active; inconclusive means weak or mixed curves, or effect the other way; inactive means no such curve, though single readings can be large or run the other way; the % refers to the signal ratio; further: potency means the concentration at half of the fitted maximal effect); settings: HepG2 ARE-bla reporter, beta-lactamase FRET, 16 h; activation: at 73.3 µM (top of the series) unless noted
# How it was run: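 Quantitative high-throughput format in HepG2 cells bearing an integrated ARE-beta-lactamase reporter. Compound exposure lasted 16 h at 37 C, and fluorescence was read 2 h after adding LiveBLAzer B/G substrate at room temperature.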
# [6] = qHTS assay for small molecule activators of the heat shock response signaling pathway - cell viability counter screen (AID 743209); settings: HSE-bla HeLa viability, CellTiter-Glo luminescence, 5 h; activity change, negative = cytotoxicity: at 62.6 µM (top of the series); further: nearly all actives have a fitted effect of over 50% in size; further: potency means the concentration at half of the fitted maximal effect
# How it was run: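 Quantitative HTS format, Tox21 10K library. HeLa cells carrying an HSE-driven beta-lactamase reporter were treated 5 h at 37 C, then assessed for viability by CellTiter-Glo luminescence.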
# [7] = qHTS assay to identify small molecule agonists of the farnesoid-X-receptor (FXR) signaling pathway - cell viability counter screen (AID 743218); settings: FXR-bla HEK293T viability, CellTiter-Glo luminescence, 16 h; viability change, negative = cytotoxic: at 62.6 µM (top of the series) unless noted; further: on the % scale 0 is the no-effect control and ±100 the full control effect; nearly all actives have a fitted effect of over 45% in size
# How it was run: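 In GeneBLAzer FXR-UAS-bla HEK 293T cells, compounds act for 16 h at 37 C. Cell viability is then scored in the reporter wells by CellTiter-Glo, 30 min at RT, luminescence.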
# [8] = qHTS assay to identify small molecule that activate the aryl hydrocarbon receptor (AhR) signaling pathway - cell viability counter screen (AID 743086); further: potency means the concentration at half of the fitted maximal effect; nearly all actives have a fitted effect of over 45% in size
# How it was run: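 Cytotoxicity counter screen: CellTiter-Fluor signal (30 min, 37 C) in 4000 HepG2 cells/well carrying the DRE-luciferase reporter, following 24 h compound exposure at 37 C.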
# [9] = molecular target: Peroxisome proliferator-activated receptor delta (Homo sapiens) (UniProt Q03181); assay: qHTS assay to identify small molecule agonists of the peroxisome proliferator-activated receptor delta (PPARd) signaling pathway (AID 743212; calls by dose curve; further: on the % scale 0 is the no-effect control and ±100 the full control effect); settings: HEK293H PPARd-UAS-bla, beta-lactamase FRET ratio, 17 h; activation: at 62.6 µM (top of the series) unless noted
# How it was run: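 HEK293H PPARd-bla cells; 5 h preincubation 37 C/5% CO2; compound (DMSO) 37 C; LiveBLAzer B/G FRET substrate 2 h RT; fluorescence intensity.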
# [10] = qHTS assay to identify small molecule antagonists of the peroxisome proliferator-activated receptor delta (PPARd) signaling pathway - cell viability counter screen (AID 743213); settings: PPARd-bla HEK293H viability, CellTiter-Glo luminescence, 17 h; viability change, negative = cytotoxic: at 62 µM (top of the series) unless noted; further: nearly all actives have a fitted effect of over 50% in size; further: potency means the concentration at half of the fitted maximal effect
# How it was run: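 Cytotoxicity counter screen: CellTiter-Glo luminescence read 30 min after addition, in the same wells as the reporter assay. There, PPARd UAS-bla HEK293H cells (3000/well) were treated 17 h at 37 C with compound and 300 nM L165041.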
# [11] = qHTS assay for small molecule agonists of the antioxidant response element (ARE) signaling pathway - cell viability counter screen (AID 743203; calls by dose curve; further: potency means the concentration at half of the fitted maximal effect; nearly all actives have a fitted effect of over 55% in size); settings: ARE-bla HepG2 viability, CellTiter-Glo luminescence, 16 h; viability change, negative = cytotoxic: at 73.3 µM (top of the series)
# How it was run: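 Cells (ARE-bla HepG2, 2,000/well) receive DMSO-dissolved compounds after a 5 hrs rest. Plates incubate 16 hrs at 37C/5% CO2. CellTiter-Glo luminescence is then recorded after 30 min at room temperature.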
# [12] = qHTS assay for small molecule activators of the heat shock response signaling pathway (AID 743210; active means well fitted activation curve with a large enough effect in the signal ratio in the repeat runs, with a control signal flat, not every such curve was filed as active; inconclusive means weak or mixed curves; the % refers to the signal ratio; further: potency means the concentration at half of the fitted maximal effect); settings: HeLa HSE-bla reporter, beta-lactamase ratio, 5 h; activation: at 62.6 µM (top of the series)
# How it was run: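 HeLa HSE-bla cells, overnight plating; cpd in DMSO 5 h, 37 C; LiveBLAzer B/G FRET substrate 2.5 h RT; fluorescence intensity read.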
# [13] = molecular target: Vitamin D3 receptor (Homo sapiens) (UniProt P11473); assay: qHTS assay to identify small molecule antagonists of the vitamin D receptor (VDR) signaling pathway (AID 743223; active means well fitted inhibition curve with a large enough effect in the signal ratio in the repeat runs, not every such curve was filed as active; inconclusive means weak or mixed curves, or effect the other way; inactive means no such curve, though single readings can be large or run the other way; the % refers to the signal ratio; further: potency means the concentration at half of the fitted maximal effect); settings: VDR-UAS-bla HEK293T, beta-lactamase FRET ratio, 16 h; activity change, negative = inhibition: at 61 µM (top of the series) unless noted
# How it was run: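 Reporter line VDR-bla; stimulus 1alpha,25-(OH)2 vitamin D3, 3 nM final; compound co-addition, 16 h 37C/5% CO2; LiveBLAzer B/G substrate 2 h RT; fluorescence intensity.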
# [14] = qHTS assay to identify small molecule agonists of the peroxisome proliferator-activated receptor delta (PPARd) signaling pathway - cell viability counter screen (AID 743211); settings: PPARd-bla HEK293H viability, CellTiter-Glo luminescence, 17 h; activity change, negative = cytotoxicity: at 62.6 µM (top of the series); further: potency means the concentration at half of the fitted maximal effect; nearly all actives have a fitted effect of over 55% in size
# How it was run: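 qHTS cell viability: PPARd-bla HEK293H; 17 h cpd, 37C; CellTiter-Glo, luminescence at 30 min RT.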
# [15] = molecular target: Peroxisome proliferator-activated receptor delta (Homo sapiens) (UniProt Q03181); assay: qHTS assay to identify small molecule antagonists of the peroxisome proliferator-activated receptor delta (PPARd) signaling pathway (AID 743215; active means well fitted inhibition curve with a large enough effect in the signal ratio in the repeat runs, not every such curve was filed as active; inconclusive means weak or mixed curves, or effect the other way; inactive means no such curve, though single readings can be large or run the other way; the % refers to the signal ratio;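 further: cells stimulated with agonist L165041 at 300 nM final during compound exposure; potency means the concentration at half of the fitted maximal effect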); settings: HEK293H PPARd-UAS-bla, beta-lactamase FRET ratio, antagonist, 17 h; ratio activity, negative = inhibition: at 62 µM (top of the series) unless noted
# How it was run: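 Antagonist-mode beta-lactamase reporter screen: HEK293H cells with UAS-bla under PPARd control, stimulated by 300 nM L165041 (final) alongside test compound for 17 h at 37 C, then FRET fluorescence after 2 h substrate incubation.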
# [16] = qHTS assay to identify small molecule antagonists of the farnesoid-X-receptor (FXR) signaling pathway - cell viability counter screen (AID 743221; active means well fitted cell-killing curve with a large enough effect in the repeat runs, not every such curve was filed as active; inconclusive means weak or mixed curves, or effect the other way; inactive means no such curve, though single readings can be large or run the other way; further: potency means the concentration at half of the fitted maximal effect; nearly all actives have a fitted effect of over 50% in size); settings: FXR-bla HEK293T viability, CellTiter-Glo luminescence, 16 h; activity change, negative = cytotoxicity: at 62.6 µM (top of the series)
# How it was run: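 After a 5 h settling period, FXR-bla HEK 293T cells receive compound and chenodeoxycholic acid (50 uM final) and incubate 16 h at 37 C; CellTiter-Glo luminescence, read after 30 min at room temperature, reports cell viability.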
# Tags describe the fitted curve by direction and shape or compound fluorescence and quenching.
# UniProt P37231, sequence (P37231 whole entry, looked up): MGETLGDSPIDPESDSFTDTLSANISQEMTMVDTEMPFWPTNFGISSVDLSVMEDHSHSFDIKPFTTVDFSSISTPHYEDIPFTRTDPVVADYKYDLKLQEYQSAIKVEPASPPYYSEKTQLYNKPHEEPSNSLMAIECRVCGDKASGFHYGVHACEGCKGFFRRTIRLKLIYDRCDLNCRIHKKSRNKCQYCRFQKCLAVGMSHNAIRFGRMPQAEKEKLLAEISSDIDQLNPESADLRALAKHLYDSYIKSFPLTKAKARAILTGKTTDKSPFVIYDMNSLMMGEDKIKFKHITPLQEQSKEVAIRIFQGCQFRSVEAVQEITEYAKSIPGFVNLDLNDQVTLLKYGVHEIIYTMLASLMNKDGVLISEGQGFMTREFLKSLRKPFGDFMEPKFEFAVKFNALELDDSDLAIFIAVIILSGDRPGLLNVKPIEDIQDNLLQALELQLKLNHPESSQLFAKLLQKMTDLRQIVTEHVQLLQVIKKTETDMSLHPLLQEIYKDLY
# UniProt Q03181, sequence (Q03181 whole entry, looked up): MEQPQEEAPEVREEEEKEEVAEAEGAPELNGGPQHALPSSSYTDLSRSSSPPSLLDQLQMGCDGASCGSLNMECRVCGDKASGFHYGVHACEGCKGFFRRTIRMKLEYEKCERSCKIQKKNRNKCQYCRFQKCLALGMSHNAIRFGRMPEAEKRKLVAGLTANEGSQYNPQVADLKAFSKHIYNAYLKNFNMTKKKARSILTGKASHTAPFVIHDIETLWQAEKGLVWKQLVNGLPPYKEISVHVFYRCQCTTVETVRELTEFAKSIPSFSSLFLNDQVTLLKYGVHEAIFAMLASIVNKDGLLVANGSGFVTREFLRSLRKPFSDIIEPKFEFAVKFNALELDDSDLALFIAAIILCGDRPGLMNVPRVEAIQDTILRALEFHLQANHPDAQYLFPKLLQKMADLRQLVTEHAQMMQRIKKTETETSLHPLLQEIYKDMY
# UniProt P35869, sequence (P35869 whole entry, looked up): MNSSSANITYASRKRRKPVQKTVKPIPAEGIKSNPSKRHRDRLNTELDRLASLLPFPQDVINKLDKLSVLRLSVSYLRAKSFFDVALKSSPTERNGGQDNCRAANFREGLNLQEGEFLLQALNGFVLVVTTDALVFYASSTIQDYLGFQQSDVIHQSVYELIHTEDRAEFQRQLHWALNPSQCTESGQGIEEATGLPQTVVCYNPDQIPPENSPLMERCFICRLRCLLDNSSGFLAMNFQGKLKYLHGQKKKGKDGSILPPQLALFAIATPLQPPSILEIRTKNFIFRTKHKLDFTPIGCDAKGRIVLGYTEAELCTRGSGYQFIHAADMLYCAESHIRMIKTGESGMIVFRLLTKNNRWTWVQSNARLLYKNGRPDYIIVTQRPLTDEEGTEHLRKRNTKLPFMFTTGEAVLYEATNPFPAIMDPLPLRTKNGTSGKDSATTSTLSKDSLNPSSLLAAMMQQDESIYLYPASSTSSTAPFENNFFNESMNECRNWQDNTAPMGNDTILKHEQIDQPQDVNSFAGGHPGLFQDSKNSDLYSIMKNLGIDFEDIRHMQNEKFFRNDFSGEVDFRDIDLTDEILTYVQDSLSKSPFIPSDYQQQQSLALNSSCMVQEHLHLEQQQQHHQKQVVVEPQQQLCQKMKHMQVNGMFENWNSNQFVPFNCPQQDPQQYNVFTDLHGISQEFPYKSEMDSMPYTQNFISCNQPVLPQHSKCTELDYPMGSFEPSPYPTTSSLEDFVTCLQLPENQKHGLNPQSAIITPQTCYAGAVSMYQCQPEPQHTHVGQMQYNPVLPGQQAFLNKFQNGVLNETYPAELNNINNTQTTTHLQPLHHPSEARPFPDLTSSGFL
# UniProt P11473, sequence (P11473 whole entry, looked up): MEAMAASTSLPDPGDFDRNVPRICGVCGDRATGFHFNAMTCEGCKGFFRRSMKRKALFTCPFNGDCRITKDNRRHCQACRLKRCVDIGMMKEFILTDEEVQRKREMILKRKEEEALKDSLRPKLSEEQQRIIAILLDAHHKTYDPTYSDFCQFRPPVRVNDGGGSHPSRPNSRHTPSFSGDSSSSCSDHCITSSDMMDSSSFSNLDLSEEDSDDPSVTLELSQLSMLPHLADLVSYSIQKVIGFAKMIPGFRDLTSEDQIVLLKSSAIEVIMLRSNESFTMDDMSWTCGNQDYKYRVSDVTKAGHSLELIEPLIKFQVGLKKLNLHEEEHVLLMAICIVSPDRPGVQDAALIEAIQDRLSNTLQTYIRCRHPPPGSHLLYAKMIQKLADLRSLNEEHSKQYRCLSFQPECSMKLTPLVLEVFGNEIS
smiles,measurement,setting,value
O=C1CCCCC1C1CCCCC1 (centres undefined),Potency,[1],inactive
same,Potency,[2],inactive
same,Potency,[3],inactive
same,"ratio activity, negative = inhibition",[4],inconclusive: 1.98%
same,Potency,[5],inactive
same,Potency,[6],inactive
same,Potency,[7],inactive
Cc1ccc(N=Nc2c(O)c(C(=O)O)cc3ccccc23)c(S(=O)(=O)O)c1,Potency,[1],active: 6.65 µM
same,Potency,[2],inconclusive: 33.3 µM [activator]
same,Potency,[8],"inconclusive: 5.92 µM [falling, full curve]"
same,activation,[5],inconclusive: 33.9%
same,Potency,[6],inactive
same,Potency,[9],inactive
O=C1OC(=O)c2cccc3cccc1c23,Potency,[1],"inconclusive: 12.3 µM [cytotoxic, full curve, poor fit]"
same,Potency,[2],"inconclusive: 34.7 µM [activator, partial curve]"
same,Potency,[3],inactive
same,Potency,[4],inactive
same,Potency,[5],"inconclusive: 2.46 µM [falling, full curve]"
same,"viability change, negative = cytotoxic",[10],inconclusive: 18.6% [cytotoxic] [at 80.4 µM]
O=C1OCCN1/N=C/c1ccc([N+](=O)[O-])o1,Potency,[1],"inconclusive: 33.5 µM [cytotoxic, single point]"
same,Potency,[2],"inconclusive: 26.6 µM [activator, partial curve, poor fit]"
same,Potency,[8],inconclusive: 33.5 µM
same,Potency,[5],active: 15 µM
same,Potency,[11],"inconclusive: 33.5 µM [cytotoxic, partial curve, poor fit]"
same,Potency,[12],inactive
same,Potency,[10],"inconclusive: 0.668 µM [cytotoxic, single point]"
same,Potency,[13],"inconclusive: 0.535 µM [inhibitor, full curve, poor fit]"
O=c1cc(-c2ccc(O)cc2)oc2cc(O)cc(O)c12,Potency,[1],"inconclusive: 34.8 µM [cytotoxic, partial curve] and inconclusive: 7.7 µM [cytotoxic, full curve, poor fit]"
same,Potency,[2],"inconclusive: 24.7 µM [activator, partial curve, poor fit] and inconclusive: 6.86 µM [activator, partial curve]"
same,Potency,[8],"inconclusive: 49.2 µM [falling, partial curve] and inconclusive: 48.6 µM [falling, partial curve]"
same,Potency,[3],"inconclusive: 14 µM [activator] and inconclusive: 6.17 µM [activator, partial curve]"
same,Potency,[4],active: 21.9 µM
same,"ratio activity, negative = inhibition",[4],inconclusive: 5.22% [at 81.1 µM]
same,Potency,[6],"inconclusive: 17.6 µM [cytotoxic, partial curve] and active: 12.3 µM"
same,Potency,[12],inconclusive: 8.07 µM
same,Potency,[14],"inconclusive: 11 µM [cytotoxic, full curve]"
same,activation,[9],inconclusive: -5.12%
same,Potency,[15],active: 17.4 µM
same,Potency,[16],"inconclusive: 61.7 µM [rising, single point]"
